Data taken from the supplement of paper PMC3334620.
In all, about 33,000 sequences were measured (“E-score (-0.5 to 0.5)”: median about -0.011, highest 2% from about 0.28 on). Some of the results follow.

Molecular target: T1, Gcr1 (UniProt P07261)
T1 sequence: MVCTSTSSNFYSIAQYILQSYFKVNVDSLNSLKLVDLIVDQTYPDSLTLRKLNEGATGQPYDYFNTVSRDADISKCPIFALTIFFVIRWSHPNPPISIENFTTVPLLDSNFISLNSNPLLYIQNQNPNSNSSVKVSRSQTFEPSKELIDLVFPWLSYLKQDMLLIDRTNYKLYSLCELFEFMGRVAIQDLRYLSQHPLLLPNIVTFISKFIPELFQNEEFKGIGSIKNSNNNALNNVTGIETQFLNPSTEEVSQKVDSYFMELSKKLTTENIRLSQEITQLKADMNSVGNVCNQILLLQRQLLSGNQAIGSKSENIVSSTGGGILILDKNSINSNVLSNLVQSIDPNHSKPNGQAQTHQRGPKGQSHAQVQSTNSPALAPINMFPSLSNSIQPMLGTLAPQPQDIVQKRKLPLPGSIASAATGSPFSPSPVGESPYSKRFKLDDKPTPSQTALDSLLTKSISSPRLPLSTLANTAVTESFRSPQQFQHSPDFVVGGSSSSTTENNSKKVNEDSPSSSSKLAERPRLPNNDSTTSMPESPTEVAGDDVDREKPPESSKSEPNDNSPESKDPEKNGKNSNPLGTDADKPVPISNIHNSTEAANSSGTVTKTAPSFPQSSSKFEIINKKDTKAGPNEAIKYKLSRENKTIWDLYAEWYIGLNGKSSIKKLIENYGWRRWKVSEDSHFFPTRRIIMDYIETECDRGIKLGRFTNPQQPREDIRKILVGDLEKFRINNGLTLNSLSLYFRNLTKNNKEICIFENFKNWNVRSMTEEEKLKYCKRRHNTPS
Assay: PBM E-score (8-mer binding enrichment) (E-score (-0.5 to 0.5)); higher = stronger / more preferred TF binding; most listed sequences are background and not binding sites
Settings: protein concentration: 100 nM; construct: GST-full length
In short: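 GST-tagged yeast TFs (full-length or DNA-binding domain) were made by PURExpress in vitro transcription/translation and applied at about 100-200 nM to universal all-10-mer Agilent arrays. The arrays were made double-stranded by primer extension, on fresh or once-stripped slides. Bound protein was detected with fluorescent anti-GST, and scans were normalised with masliner. Each ungapped eight-base word, pooled with its reverse complement, received an E-score (modified Wilcoxon-Mann-Whitney statistic) from the Universal PBM Analysis Suite.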

| Sequence | PBM E-score |
| --- | --- |
| CAGTGCGG | -0.103 |
| CGGGCAGA | -0.0209 |
| CACTCAAA | 0.0624 |
| GAACAACA | -0.164 |
| AGAAGACG | 0.277 |
| AATTAAAG | 0.112 |
| AGTCTATA | -0.0451 |
| CAGGGCTA | -0.0633 |
| AACACATG | -0.022 |
| CTCAGCAA | -0.05 |
| ATGATGAC | -0.162 |
| AATCAAAG | 0.0968 |
| ACCGTGGC | -0.183 |
| AAGCGAAA | 0.0656 |
| AACGAAGT | -0.0859 |
| ACATTCCG | -0.0668 |
| GACGGCGA | -0.0437 |
| CCTTCCTA | -0.019 |
| ACCATCTG | 0.0496 |
| CCAGGAAA | -0.111 |
| AGAACGCG | 0.0534 |
| CGCGCGAA | 0.0586 |

| Sequence | PBM E-score |
| --- | --- |
| CCCGAAGG | 0.0163 |
| CCGCCTTC | 0.0135 |
| GCGTTTAA | 0.0506 |
| AAGTGCGA | -0.113 |
| TGCTAGCA | -0.243 |
| GCACACTA | 0.127 |
| CGCTTCTA | 0.259 |
| AGTTAAAG | -0.042 |
| CCACTGTC | 0.0267 |
| CTCACATC | -0.0648 |
| CCCAAAGG | -0.138 |
| AGATAAGC | 0.0314 |
| CGTAAGTA | 0.0448 |
| ATTTCGCA | 0.0698 |
| AAGGTCTG | -0.0336 |
| CCAATTCG | 0.0513 |
| AGTAAGCC | -0.118 |
| CCACTACA | 0.194 |
| CATTGCTA | -0.0517 |
| CCTCTTAA | -0.134 |
| ACAAGTAG | 0.185 |
| AACTCTAC | -0.0207 |

| Sequence | PBM E-score |
| --- | --- |
| AGGGAGAA | -0.113 |
| CAACCAAA | 0.313 |
| ACTCTATA | -0.0199 |
| CATCGTAA | -0.0596 |
| GGTCATCA | -0.22 |
| ACTCACGC | -0.114 |
| AGGTGTCC | 0.184 |
| AAGAAAGT | 0.0414 |
| AACCGTTA | -0.348 |
| GACCCATA | 0.155 |
| GATAATGA | 0.0431 |
| AAATGCGC | 0.0318 |
| GTGCAATA | 0.128 |
| AGACAATG | 0.0145 |
| AACAGGAC | 0.162 |
| AACCGCCG | 0.00829 |
| AGTAAAGC | -0.165 |
| TCCTTTCA | 0.0522 |
| ACGATCGG | -0.065 |
| CCTGAGAC | -0.0674 |
| CGCCGTTC | -0.165 |
| GAGCTACA | 0.0502 |

| Sequence | PBM E-score |
| --- | --- |
| CATATATA | 0.132 |
| AGGGACCC | -0.0366 |
| AGACCAGC | -0.027 |
| ACTCCGTA | -0.221 |
| CGGACGAC | -0.0334 |
| ATATGTAA | 0.115 |
| ATAATGGG | 0.326 |
| CAAGATAA | 0.032 |
| CAAGATGA | 0.0382 |
| ACCCAAGG | -0.0329 |
| TAACGGGA | -0.0444 |
| TATCAGCA | 0.182 |
| ATCGACTA | 0.0376 |
| CAAGTTCG | -0.0211 |
| CTGTAATC | -0.126 |
| AGAGATCA | -0.25 |
| ATCGAAAT | -0.0811 |
| ACGGAACT | -0.249 |
| ACCTAAAG | 0.178 |
| GTCAAGAC | -0.167 |
